Data: the supplement of paper PMC10037445
Whole data set: some 2,900 compounds, median “IRF Lucia reporter activity, fold change vs agonist alone” near 0.9, cut for the highest 2% near 2.8. The list shows a part of the results.

Assays:
RAW-Dual [1] = assay: IRF Lucia reporter activity, fold change vs agonist alone; higher = enhanced IRF activity; details: library stock concentration (final ~1000-fold dilution): 10 mM, agonist: MPLA (TLR4) […]
Summary of the method: (§1)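 RAW-Dual macrophages were seeded in DMEM at 50,000 cells/well in 384-well plates, given 50 nL of library stock by pin tool, and given a PRR agonist 1 h later. Plates were held at 37 °C, 5% CO2 for 20 hours, after which supernatant was read for IRF by QuantiLuc luminescence and for NF-κB by QuantiBlue absorbance at 620 nm. Reporter activity is expressed as fold change over wells that received agonist alone. A well was called cytotoxic when IncuCyte confluency fell below 70% of agonist controls in both mask sets.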

RAW-Dual [2] = assay: IRF Lucia reporter activity, fold change vs agonist alone; cytotoxicity flag (confluency mask): not cytotoxic; higher = enhanced IRF activity
Summary of the method: as §1

RAW-Dual [3] = assay: IRF Lucia reporter activity, fold change vs agonist alone; cytotoxicity flag (confluency mask): cytotoxic (confluency <70% of control); higher = enhanced IRF activity
Summary of the method: as §1

[4] = cytotoxicity flag (confluency mask): not cytotoxic
[5] = agonist: 3'3'-cGAMP (STING) 10 ug/mL

For `C/C(=C\C(=O)Nc1ccccc1C(=O)O)c1ccc2ccccc2c1`, the “IRF Lucia reporter activity” value (RAW-Dual [1]; [4]) was 0.935.
For `C/C(=C\C(=O)Nc1ccccc1C(=O)O)c1ccc2ccccc2c1` (library stock concentration (final ~1000-fold dilution): 10 mM), the “IRF Lucia reporter activity” value (RAW-Dual [2]; [5]) was 0.961 and the “IRF Lucia reporter activity” value (RAW-Dual [2]; agonist: LPS (TLR4) 0.1 ug/mL) was 1.26.
For `O=C(c1ccc(/C=C/c2n[nH]c3ccccc23)cc1)N1CCNCC1` (library stock concentration (final ~1000-fold dilution): 10 mM), the “IRF Lucia reporter activity” value (RAW-Dual [2]; [5]) was 0.0176 and the “IRF Lucia reporter activity” value (RAW-Dual [2]; agonist: LPS (TLR4) 0.1 ug/mL) was 0.0178.
`O=C(c1ccc(/C=C/c2n[nH]c3ccccc23)cc1)N1CCNCC1` was tested, and the “IRF Lucia reporter activity” value (RAW-Dual [1]; [4]) was 0.0347.
`CC(=O)C(=O)Oc1ccccc1C(=O)O` (library stock concentration (final ~1000-fold dilution): 10 mM) was tested, and the “IRF Lucia reporter activity” value (RAW-Dual [2]; [5]) was 0.0153 and the “IRF Lucia reporter activity” value (RAW-Dual [2]; agonist: LPS (TLR4) 0.1 ug/mL) was 0.0192.
In the case of `Cc1ccc(-n2sc(=O)n(Cc3ccc(F)cc3)c2=O)cc1`, the “IRF Lucia reporter activity” value (RAW-Dual [1]; cytotoxicity flag (confluency mask): cytotoxic (confluency <70% of control)) is reported as 0.703.
For `Cc1ccc(-n2sc(=O)n(Cc3ccc(F)cc3)c2=O)cc1` (library stock concentration (final ~1000-fold dilution): 10 mM), the “IRF Lucia reporter activity” value (RAW-Dual [3]; [5]) was 0.62 and the “IRF Lucia reporter activity” value (RAW-Dual [3]; agonist: LPS (TLR4) 0.1 ug/mL) was 0.473.
With `Cn1nc(C(C)(C)C)cc1C(=O)NC(Cc1cccc(Cl)c1)C(=O)NCC#N` (centres undefined) the “IRF Lucia reporter activity” value (RAW-Dual [1]; [4]) was 1.11.
In the case of `Cn1nc(C(C)(C)C)cc1C(=O)NC(Cc1cccc(Cl)c1)C(=O)NCC#N` (centres undefined) (library stock concentration (final ~1000-fold dilution): 10 mM), the “IRF Lucia reporter activity” value (RAW-Dual [2]; [5]) is reported as 1.16 and the “IRF Lucia reporter activity” value (RAW-Dual [2]; agonist: LPS (TLR4) 0.1 ug/mL) is reported as 1.01.
In the case of `O=C(NCCN1CCOCC1)c1ccc(Cl)cc1`, the “IRF Lucia reporter activity” value (RAW-Dual [1]; [4]) is reported as 0.932.
For `O=C(NCCN1CCOCC1)c1ccc(Cl)cc1` (library stock concentration (final ~1000-fold dilution): 10 mM), the “IRF Lucia reporter activity” value (RAW-Dual [2]; [5]) was 1.57 and the “IRF Lucia reporter activity” value (RAW-Dual [2]; agonist: LPS (TLR4) 0.1 ug/mL) was 0.939.
In the case of `Cc1cc(Cl)ccc1OCCCC(=O)NO` (library stock concentration (final ~1000-fold dilution): 10 mM), the “IRF Lucia reporter activity” value (RAW-Dual [2]; [5]) is reported as 0.0817 and the “IRF Lucia reporter activity” value (RAW-Dual [2]; agonist: LPS (TLR4) 0.1 ug/mL) is reported as 1.04.
With `Cc1cc(Cl)ccc1OCCCC(=O)NO` the “IRF Lucia reporter activity” value (RAW-Dual [1]; [4]) was 0.704.
For `CC(C)(C)NC(=O)C1CN(Cc2cccnc2)CCN1CC(O)CC(Cc1ccccc1)C(=O)NC1c2ccccc2CC1O.O=S(=O)(O)O` (centres undefined) (library stock concentration (final ~1000-fold dilution): 10 mM), the “IRF Lucia reporter activity” value (RAW-Dual [2]; [5]) was 1.1 and the “IRF Lucia reporter activity” value (RAW-Dual [2]; agonist: LPS (TLR4) 0.1 ug/mL) was 0.77.
With `CN(C)CCOc1ccc(-c2nc(-c3ccncc3)c(-c3ccc4c(c3)CC/C4=N\O)[nH]2)cc1` (library stock concentration (final ~1000-fold dilution): 10 mM) the “IRF Lucia reporter activity” value (RAW-Dual [2]; [5]) was 0.992 and the “IRF Lucia reporter activity” value (RAW-Dual [2]; agonist: LPS (TLR4) 0.1 ug/mL) was 3.04.
With `CN(C)CCOc1ccc(-c2nc(-c3ccncc3)c(-c3ccc4c(c3)CC/C4=N\O)[nH]2)cc1` the “IRF Lucia reporter activity” value (RAW-Dual [1]; [4]) was 1.04.
For `COc1ccc(-c2oc3c(CC=C(C)C)c(OC4OC(CO)C(O)C(O)C4O)cc(O)c3c(=O)c2OC2OC(C)C(O)C(O)C2O)cc1` (centres undefined) (library stock concentration (final ~1000-fold dilution): 10 mM), the “IRF Lucia reporter activity” value (RAW-Dual [2]; [5]) was 0.985 and the “IRF Lucia reporter activity” value (RAW-Dual [2]; agonist: LPS (TLR4) 0.1 ug/mL) was 1.04.
`COc1ccc(-c2oc3c(CC=C(C)C)c(OC4OC(CO)C(O)C(O)C4O)cc(O)c3c(=O)c2OC2OC(C)C(O)C(O)C2O)cc1` (centres undefined) was tested, and the “IRF Lucia reporter activity” value (RAW-Dual [1]; [4]) was 1.07.
`C1=CCOCc2cc(ccc2OCCN2CCCC2)Nc2nccc(n2)-c2cccc(c2)COC1` (library stock concentration (final ~1000-fold dilution): 10 mM) was tested, and the “IRF Lucia reporter activity” value (RAW-Dual [3]; [5]) was 0.0112 and the “IRF Lucia reporter activity” value (RAW-Dual [3]; agonist: LPS (TLR4) 0.1 ug/mL) was 0.0217.
For `OCC1OC(Oc2ccc(O)cc2)C(O)C(O)C1O` (centres undefined), the “IRF Lucia reporter activity” value (RAW-Dual [1]; [4]) was 1.02.
With `OCC1OC(Oc2ccc(O)cc2)C(O)C(O)C1O` (centres undefined) (library stock concentration (final ~1000-fold dilution): 10 mM) the “IRF Lucia reporter activity” value (RAW-Dual [2]; [5]) was 1 and the “IRF Lucia reporter activity” value (RAW-Dual [2]; agonist: LPS (TLR4) 0.1 ug/mL) was 0.862.
In the case of `Cc1c(Br)c(Br)c2c3c1nc(N1CCNCC1)n3CCC2.Cl` (library stock concentration (final ~1000-fold dilution): 10 mM), the “IRF Lucia reporter activity” value (RAW-Dual [3]; [5]) is reported as 0.0133 and the “IRF Lucia reporter activity” value (RAW-Dual [3]; agonist: LPS (TLR4) 0.1 ug/mL) is reported as 0.0103.
`Cc1ccc(Nc2ncc3c(n2)N(C)C(=O)N(c2cc(NC(=O)c4cccc(C(F)(F)F)c4)ccc2C)C3)cn1` (library stock concentration (final ~1000-fold dilution): 10 mM) was tested, and the “IRF Lucia reporter activity” value (RAW-Dual [2]; [5]) was 0.242 and the “IRF Lucia reporter activity” value (RAW-Dual [2]; agonist: LPS (TLR4) 0.1 ug/mL) was 0.0192.
For `O=C(Oc1ccccc1C(=O)O)c1ccccc1O` (library stock concentration (final ~1000-fold dilution): 10 mM), the “IRF Lucia reporter activity” value (RAW-Dual [2]; [5]) was 0.744 and the “IRF Lucia reporter activity” value (RAW-Dual [2]; agonist: LPS (TLR4) 0.1 ug/mL) was 0.892.
With `COc1c(C)c2c(c(O)c1C/C=C(\C)CCC(=O)O)C(=O)OC2` the “IRF Lucia reporter activity” value (RAW-Dual [1]; [4]) was 1.14.
`COc1c(C)c2c(c(O)c1C/C=C(\C)CCC(=O)O)C(=O)OC2` (library stock concentration (final ~1000-fold dilution): 10 mM) was tested, and the “IRF Lucia reporter activity” value (RAW-Dual [2]; [5]) was 0.989 and the “IRF Lucia reporter activity” value (RAW-Dual [2]; agonist: LPS (TLR4) 0.1 ug/mL) was 1.12.
With `CCOc1cc(CC(=O)NC(CC(C)C)c2ccccc2N2CCCCC2)ccc1C(=O)O` (centres undefined) (library stock concentration (final ~1000-fold dilution): 10 mM) the “IRF Lucia reporter activity” value (RAW-Dual [2]; [5]) was 0.954 and the “IRF Lucia reporter activity” value (RAW-Dual [2]; agonist: LPS (TLR4) 0.1 ug/mL) was 1.19.
